Laboratory results as given in the supplement of paper PMC10986608.
The other results are listed elsewhere or left out. Most values come without repeats; read them as rough.

Each molecule was assayed on Candida albicans DPL-15 (assay: growth (OD600) after compound treatment (apparently relative to screen median) (relative growth (fraction; screen median 1.02)); DPL-15 is a caspofungin-resistant clinical isolate; higher = more fungal growth (less antifungal activity)). Conditions: 25 µM; RPMI 1640; 48 h; 30 °C.

Row | SMILES | growth
1 | CC(C)c1c2c(nn1C)C(=O)N(Cc1ccccc1)C2c1cccc(C(F)(F)F)c1 (stereo unspecified) | 0.953
2 | COc1ccc(C2=C[C@@]3(c4ccc(OC)cc4)[C@@H]4C(=O)[C@](C)(O)[C@@H](C=C4C(C)(C)C)[C@H]3C2=O)cc1 | 1.15
3 | COCn1c2ccccc2c2nnc(C(=O)c3ccccc3)nc21 | 0.966
4 | C=CC[C@]12CC(=C)C[C@](C)(C(=O)C(C(=O)OC)=C1C)C2=O | 0.884
5 | COc1ccc([C@@H]2[C@@H](C(=O)NC3CCCC3)[C@H](C(=O)NC3CCCC3)[C@H]2c2ccc(OC)c(OC)c2)cc1OC | 1.06
6 | CCc1ccccc1-n1nc(CC(C)C)c2c1C(=O)NC2c1ccc(C)cc1 (stereo unspecified) | 1.08
7 | C[C@H]1C=C(c2ccccc2)[C@]2(CCCO2)[C@@H]1c1ccccc1 | 1.02
8 | N#Cc1ccc(-c2[nH]c3cccc(F)c3c(=O)c2O)cc1 | 0.321
9 | CC(=O)C1=C(C)N(Cc2ccc(F)cc2)C(=S)NC1c1cccc(Br)c1 (stereo unspecified) | 0.867
10 | COc1ccc(C2NC(=O)N3CCC=CC3=C2C(C)=O)cc1F (stereo unspecified) | 1.01
11 | COc1ccc(N2C(=O)C3=C(C(c4ccccc4)=NCC(C)(C)N3)C2c2ccc(F)cc2)cc1 (stereo unspecified) | 0.902
12 | COc1ccc(N2C(=O)C3=C(C(C(C)C)=NCC(C)(C)N3)C2c2ccc3c(c2)OCO3)cc1 (stereo unspecified) | 1.07
13 | COc1cc(OC)c2c(c1)O[C@@]1(c3ccc(Br)cc3)[C@H](c3ccccc3)c3c(nc(-c4ccccc4)[nH]c3=O)[C@@]21O | 1.01
14 | CC(C)c1n[nH]c2c1C(c1ccc(Br)cc1)N(c1ccccc1)C2=O (stereo unspecified) | 0.864
15 | COc1ccc([C@@]23Oc4cc(OC)cc(OC)c4[C@]2(O)[C@H](O)[C@H](C(=O)c2ccccc2OC)[C@H]3c2ccccc2)cc1 | 1.25
16 | O=C(N1CC[C@@]2(Cc3occc(=O)c3O)c3ccccc3N[C@@H]12)C(F)(F)F | 1.06
17 | CC(C)c1nn(-c2ccccc2)c2c1C(c1ccc(F)cc1)NC2=O (stereo unspecified) | 1.13
18 | COc1cc(OC)c2c(=O)c(O)c(-c3ccc(C(F)(F)F)cc3)n(C)c2c1 | active: 0.0901
19 | C=CCN1C(=O)C2=C(C(c3ccccc3)=NCCN2C)C1c1ccc(Br)cc1 (stereo unspecified) | 0.942
20 | O=C(c1c(O)cc(O)cc1Nc1ccnn1-c1ccccc1)N1Cc2cn[nH]c2C1 | 0.986
21 | CC(=O)C1=C2C=CCCN2C(=O)NC1c1cccc(C(F)(F)F)c1 (stereo unspecified) | 1.01
22 | CC(C)NS(=O)(=O)OC[C@H]1O[C@@H](n2cnc3c(N(C(=O)OC(C)(C)C)C(=O)OC(C)(C)C)ncnc32)[C@@H]2OC(C)(C)O[C@@H]21 | 0.858
23 | CC(=O)OC[C@H]1O[C@H](c2ccccc2)C=C[C@@H]1OC(C)=O | 1.01
24 | CC#CCN1C(=O)N[C@@H](c2ccccc2)C(C(=O)OC)=C1C | 0.922
25 | CN1CCCc2nc(-c3ccc(F)cc3)ccc21 | 0.922
26 | CC1=C[C@@H](COc2ccccc2)O[C@@]2(C1)C(=O)N(Cc1ccccc1)c1ccccc12 | 0.936

Row | SMILES | growth
27 | C/C=C/C=C/C(=O)Nc1cccc2cccnc12 | 1.04
28 | COc1ccccc1Cn1nc(C)c2c1C(=O)NC2c1cccc(C(F)(F)F)c1 (stereo unspecified) | 0.934
29 | CCCCCOS(=O)(=O)Nc1ccccc1C#N | 1.14
30 | C=CCN1C(=O)C2=C(C(C(C)C)=NCC(C)(C)N2)C1c1ccccc1 (stereo unspecified) | 0.981
31 | CC(C)Cc1n[nH]c2c1C(c1ccccc1Br)N(c1ccc(N(C)C)cc1)C2=O (stereo unspecified) | 0.885
32 | COC(=O)C1=C(C)N(Cc2ccc(F)cc2)C(=S)NC1c1cccc(OC)c1 (stereo unspecified) | 0.881
33 | C=CCN1C(=O)C2=C(C(C(C)C)=NCCN2C)C1c1ccc2c(c1)OCO2 (stereo unspecified) | 0.998
34 | Cc1ccccc1-c1cc(N)n(C)n1 | 1.03
35 | C#CCC(C)(C)CNC(=O)CC1(CNC(=O)c2cccc(/C=N/NS(=O)(=O)c3ccc(C)cc3)c2)CCCCC1 | 0.991
36 | CC(=O)OC[C@H]1O[C@H](c2cccc(C(C)=O)c2)C=C[C@H]1OC(C)=O | 0.99
37 | COc1ccc(-c2ccc3c(n2)CCCN3S(=O)(=O)c2ccc(OC)cc2)cc1 | 1.01
38 | CC(C)CC1=NCCNC2=C1C(c1ccc3c(c1)OCO3)NC2=O (stereo unspecified) | 1.08
39 | CC(=O)C1=C(C)N(Cc2ccccc2)C(=S)NC1c1ccc(Cl)cc1 (stereo unspecified) | 0.962
40 | COc1ccc(N2C(=O)C3=C(C(CC(C)C)=NCCN3)C2c2ccccc2)cc1 (stereo unspecified) | 1.07
41 | Cc1c2n[nH]c1-c1cccc(c1)C(=O)NCC1(CCCCC1)CC(=O)N[C@@H](c1ccccc1)COC2 | 1.13
42 | CC#CCN1C(=O)N(C(C)=O)C(c2ccccc2)C(C(=O)OC)=C1CCl (stereo unspecified) | 1.24
43 | COC(=O)C/C=C/[C@H](C)[C@@H](NC(=O)[C@H](Cc1ccccc1)NC(=O)OC(C)(C)C)c1cccc(Br)c1 | 0.968
44 | C[C@@H]1C2C(C(=O)NC3CCCC3)=C(c3ccccc3)NC2C(=O)C[C@H]1c1ccccc1 (stereo partly specified) | 0.936
45 | CC1=NCCN(C)C2=C1C(c1ccccc1)N(c1ccccc1)C2=O (stereo unspecified) | 0.965
46 | CC#CCCN1C(=O)N(C(C)=O)C(c2ccccc2)C(C(C)=O)=C1C (stereo unspecified) | 1.01
47 | COC(=O)[C@]1([C@H]2CCC(=O)O2)CC(=O)c2c(O)ccc(Br)c2O1 | 0.92
48 | COc1ccc(Cn2nc(C)cc2N)cc1 | 1.27
49 | Nc1ccc(CCN2CCc3cc4c(cc3C2)OCO4)cc1 | 1.06
50 | COc1cccc2oc(C(=O)O)cc(=O)c12 | 1.12
51 | COC(=O)[C@@H]1[C@@H](O)[C@@]2(O)c3c(OC)cc(OS(=O)(=O)c4ccc(C)cc4)cc3O[C@@]2(c2ccc(Br)cc2)[C@H]1c1ccccc1 | 1.02
